Measurements from the supplement of paper PMC8728848.
Some of the results follow.

How the values were obtained:
Test in all cases: glycan array binding signal (z-score within array); higher = stronger binding
Conditions in all cases: glycan notation: IUPAC condensed, linker removed
[1] = target: GlcNAc(a1-6)Gal(b1-4)GlcNAc
Method in brief: (§1)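 Glycan array data were curated from 3228 arrays in the Consortium for Functional Glycomics database and kept only where the protein sequence was available. Glycan names were converted to IUPAC-condensed notation, and columns mapping to the same glycan were averaged. The binding signal is a within-array Z-score, averaged across arrays of the same protein sequence at different concentrations or buffers and across linkers. Negative Z-scores can be read as non-binding.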

[2] = target: GlcNAc(b1-2)Gal(b1-3)GalNAc
Method in brief: as §1

[3] = target: GlcNAc(b1-2)Man(a1-3)[GlcNAc(b1-2)Man(a1-6)]Man(b1-4)GlcNAc(b1-4)GlcNAc
Method in brief: as §1

[4] = target: GlcNAc(b1-2)Man(a1-3)[GlcNAc(b1-2)Man(a1-6)]Man(b1-4)GlcNAc(b1-4)[Fuc(a1-6)]GlcNAc
Method in brief: as §1

[5] = target: GlcNAc(b1-2)Man(a1-3)[GlcNAc(b1-4)][GlcNAc(b1-2)Man(a1-6)]Man(b1-4)GlcNAc(b1-4)GlcNAc
Method in brief: as §1

[6] = target: GlcNAc(b1-2)Man(a1-3)[GlcNAc(b1-4)][GlcNAc(b1-2)Man(a1-6)]Man(b1-4)GlcNAc(b1-4)[Fuc(a1-6)]GlcNAc
Method in brief: as §1

[7] = target: GlcNAc(b1-2)[GlcNAc(b1-4)]Man(a1-3)[GlcNAc(b1-2)Man(a1-6)]Man(b1-4)GlcNAc(b1-4)GlcNAc
Method in brief: as §1

[8] = target: GlcNAc(b1-2)[GlcNAc(b1-4)]Man(a1-3)[GlcNAc(b1-4)][GlcNAc(b1-2)Man(a1-6)]Man(b1-4)GlcNAc(b1-4)GlcNAc
Method in brief: as §1

[9] = target: GlcNAc(b1-2)[GlcNAc(b1-4)]Man(a1-3)[GlcNAc(b1-4)][GlcNAc(b1-2)[GlcNAc(b1-6)]Man(a1-6)]Man(b1-4)GlcNAc(b1-4)GlcNAc
Method in brief: as §1

[10] = target: GlcNAc(b1-2)[GlcNAc(b1-4)]Man(a1-3)[GlcNAc(b1-4)][GlcNAc(b1-2)[GlcNAc(b1-6)]Man(a1-6)]Man(b1-4)GlcNAc(b1-4)[Fuc(a1-6)]GlcNAc
Method in brief: as §1

[11] = target: GlcNAc(b1-2)[GlcNAc(b1-6)]Man(a1-6)[GlcNAc(b1-2)Man(a1-3)]Man(b1-4)GlcNAc(b1-4)GlcNAc
Method in brief: as §1

[12] = target: GlcNAc(b1-2)[GlcNAc(b1-6)]Man(a1-6)[GlcNAc(b1-2)Man(a1-3)]Man(b1-4)GlcNAc(b1-4)[Fuc(a1-6)]GlcNAc
Method in brief: as §1

[13] = target: GlcNAc(b1-2)[GlcNAc(b1-6)]Man(a1-6)[GlcNAc(b1-4)][GlcNAc(b1-2)Man(a1-3)]Man(b1-4)GlcNAc(b1-4)GlcNAc
Method in brief: as §1

GlcNAc(b1-3)Fuc = target: GlcNAc(b1-3)Fuc
Method in brief: as §1

GlcNAc(b1-3)Gal = target: GlcNAc(b1-3)Gal
Method in brief: as §1

[14] = target: GlcNAc(b1-3)Gal(b1-3)GalNAc
Method in brief: as §1

GlcNAc(b1-3)Gal(b1-4)Glc = target: GlcNAc(b1-3)Gal(b1-4)Glc
Method in brief: as §1

[15] = target: GlcNAc(b1-3)Gal(b1-4)GlcNAc
Method in brief: as §1

[16] = target: GlcNAc(b1-3)Gal(b1-4)GlcNAc(b1-2)Man(a1-3)[GlcNAc(b1-3)Gal(b1-4)GlcNAc(b1-2)Man(a1-6)]Man(b1-4)GlcNAc(b1-4)GlcNAc
Method in brief: as §1

[17] = target: GlcNAc(b1-3)Gal(b1-4)GlcNAc(b1-2)Man(a1-3)[GlcNAc(b1-3)Gal(b1-4)GlcNAc(b1-2)Man(a1-6)]Man(b1-4)GlcNAc(b1-4)[Fuc(a1-6)]GlcNAc
Method in brief: as §1

[18] = target: GlcNAc(b1-3)Gal(b1-4)GlcNAc(b1-2)[GlcNAc(b1-3)Gal(b1-4)GlcNAc(b1-6)]Man(a1-6)[GlcNAc(b1-3)Gal(b1-4)GlcNAc(b1-2)Man(a1-3)]Man(b1-4)GlcNAc(b1-4)GlcNAc
Method in brief: as §1

[19] = target: GlcNAc(b1-3)Gal(b1-4)GlcNAc(b1-3)Gal(b1-4)GlcNAc
Method in brief: as §1

[20] = target: GlcNAc(b1-3)Gal(b1-4)GlcNAc(b1-3)Gal(b1-4)GlcNAc(b1-2)Man(a1-3)[GlcNAc(b1-3)Gal(b1-4)GlcNAc(b1-3)Gal(b1-4)GlcNAc(b1-2)Man(a1-6)]Man(b1-4)GlcNAc(b1-4)GlcNAc
Method in brief: as §1

[21] = target: GlcNAc(b1-3)Gal(b1-4)GlcNAc(b1-3)Gal(b1-4)GlcNAc(b1-2)Man(a1-3)[GlcNAc(b1-3)Gal(b1-4)GlcNAc(b1-3)Gal(b1-4)GlcNAc(b1-2)Man(a1-6)]Man(b1-4)GlcNAc(b1-4)[Fuc(a1-6)]GlcNAc
Method in brief: as §1

[22] = target: GlcNAc(b1-3)Gal(b1-4)GlcNAc(b1-3)Gal(b1-4)GlcNAc(b1-2)[GlcNAc(b1-3)Gal(b1-4)GlcNAc(b1-3)Gal(b1-4)GlcNAc(b1-6)]Man(a1-6)[GlcNAc(b1-3)Gal(b1-4)GlcNAc(b1-3)Gal(b1-4)GlcNAc(b1-2)Man(a1-3)]Man(b1-4)GlcNAc(b1-4)[Fuc(a1-6)]GlcNAc
Method in brief: as §1

[23] = target: GlcNAc(b1-3)Gal(b1-4)GlcNAc(b1-3)Gal(b1-4)GlcNAc(b1-3)Gal(b1-4)GlcNAc(b1-2)Man(a1-3)[GlcNAc(b1-3)Gal(b1-4)GlcNAc(b1-3)Gal(b1-4)GlcNAc(b1-3)Gal(b1-4)GlcNAc(b1-2)Man(a1-6)]Man(b1-4)GlcNAc(b1-4)GlcNAc
Method in brief: as §1

[24] = target: GlcNAc(b1-3)Gal(b1-4)GlcNAc(b1-3)Gal(b1-4)GlcNAc(b1-3)Gal(b1-4)GlcNAc(b1-2)Man(a1-3)[GlcNAc(b1-3)Gal(b1-4)GlcNAc(b1-3)Gal(b1-4)GlcNAc(b1-3)Gal(b1-4)GlcNAc(b1-2)Man(a1-6)]Man(b1-4)GlcNAc(b1-4)[Fuc(a1-6)]GlcNAc
Method in brief: as §1

[25] = target: GlcNAc(b1-3)Gal(b1-4)GlcNAc(b1-3)Gal(b1-4)GlcNAc(b1-3)Gal(b1-4)GlcNAc(b1-2)[GlcNAc(b1-3)Gal(b1-4)GlcNAc(b1-3)Gal(b1-4)GlcNAc(b1-3)Gal(b1-4)GlcNAc(b1-6)]Man(a1-6)[GlcNAc(b1-3)Gal(b1-4)GlcNAc(b1-3)Gal(b1-4)GlcNAc(b1-3)Gal(b1-4)GlcNAc(b1-2)Man(a1-3)]Man(b1-4)GlcNAc(b1-4)[Fuc(a1-6)]GlcNAc
Method in brief: as §1

[26] = target: GlcNAc(b1-3)Gal(b1-4)GlcNAc(b1-3)Gal(b1-4)GlcNAc(b1-3)Gal(b1-4)GlcNAc(b1-3)Gal(b1-4)GlcNAc(b1-2)Man(a1-3)[GlcNAc(b1-3)Gal(b1-4)GlcNAc(b1-3)Gal(b1-4)GlcNAc(b1-3)Gal(b1-4)GlcNAc(b1-3)Gal(b1-4)GlcNAc(b1-2)Man(a1-6)]Man(b1-4)GlcNAc(b1-4)GlcNAc
Method in brief: as §1

[27] = target: GlcNAc(b1-3)Gal(b1-4)GlcNAc(b1-3)Gal(b1-4)GlcNAc(b1-3)Gal(b1-4)GlcNAc(b1-3)Gal(b1-4)GlcNAc(b1-2)Man(a1-3)[GlcNAc(b1-3)Gal(b1-4)GlcNAc(b1-3)Gal(b1-4)GlcNAc(b1-3)Gal(b1-4)GlcNAc(b1-3)Gal(b1-4)GlcNAc(b1-2)Man(a1-6)]Man(b1-4)GlcNAc(b1-4)[Fuc(a1-6)]GlcNAc
Method in brief: as §1

[28] = target: GlcNAc(b1-3)Gal(b1-4)GlcNAc(b1-3)Gal(b1-4)GlcNAc(b1-3)Gal(b1-4)GlcNAc(b1-3)Gal(b1-4)GlcNAc(b1-2)[GlcNAc(b1-3)Gal(b1-4)GlcNAc(b1-3)Gal(b1-4)GlcNAc(b1-3)Gal(b1-4)GlcNAc(b1-3)Gal(b1-4)GlcNAc(b1-6)]Man(a1-6)[GlcNAc(b1-3)Gal(b1-4)GlcNAc(b1-3)Gal(b1-4)GlcNAc(b1-3)Gal(b1-4)GlcNAc(b1-3)Gal(b1-4)GlcNAc(b1-2)Man(a1-3)]Man(b1-4)GlcNAc(b1-4)[Fuc(a1-6)]GlcNAc
Method in brief: as §1

[29] = target: GlcNAc(b1-3)Gal(b1-4)GlcNAc(b1-3)Gal(b1-4)GlcNAc(b1-3)GalNAc
Method in brief: as §1

[30] = target: GlcNAc(b1-3)Gal(b1-4)GlcNAc(b1-3)GalNAc
Method in brief: as §1

[31] = target: GlcNAc(b1-3)Gal(b1-4)GlcNAc(b1-3)[GlcNAc(b1-3)Gal(b1-4)GlcNAc(b1-3)]GalNAc
Method in brief: as §1

[32] = target: GlcNAc(b1-3)Gal(b1-4)GlcNAc(b1-6)[Gal(b1-3)]GalNAc
Method in brief: as §1

[33] = target: GlcNAc(b1-3)Gal(b1-4)GlcNAc(b1-6)[GlcNAc(b1-3)Gal(b1-3)]GalNAc
Method in brief: as §1

[34] = target: GlcNAc(b1-3)Gal(b1-4)GlcNAc(b1-6)[GlcNAc(b1-3)]Gal(b1-4)GlcNAc
Method in brief: as §1

GlcNAc(b1-3)GalNAc = target: GlcNAc(b1-3)GalNAc
Method in brief: as §1

GlcNAc(b1-3)Man = target: GlcNAc(b1-3)Man
Method in brief: as §1

[35] = target: GlcNAc(b1-3)[GlcNAc(b1-4)][GlcNAc(b1-6)]GlcNAc
Method in brief: as §1

[36] = target: GlcNAc(b1-3)[GlcNAc(b1-6)]Gal(b1-4)GlcNAc
Method in brief: as §1

[37] = target: GlcNAc(b1-3)[GlcNAc(b1-6)]GalNAc
Method in brief: as §1

[38] = target: GlcNAc(b1-4)Gal(b1-4)GlcNAc
Method in brief: as §1

GlcNAc(b1-4)GlcNAc = target: GlcNAc(b1-4)GlcNAc
Method in brief: as §1

[39] = target: GlcNAc(b1-4)GlcNAc(b1-4)GlcNAc
Method in brief: as §1

B1: DrGal9 (Danio rerio) (protein)
chain: MAFYQQPPYYNPRIPFSGPIQGGLQDGKSIIISGRVLPGANRFHVNLQCGSHSEANVALHFNPRYEDTDYVVNNSYLNRTWGSEERKYESPFAQGQTFTLQILVAQDKYKISTNGRHFMDYKHRIPFTQVDTVAVEGMVEVNSVAFQNPAGFIPPQAGYAPQYAVPPGCGFPAFPSAPNYTIPHKTVMNGGLHPGKNIVINGVVNPNAKSIIFNLCYRSGIAFHYNPRFDENVVVRNTNQMEKWGAEERFGGLPFHKGQPFQVTISCNPQHYNVFVNGKQEHTYKHRYTKLNDIDILEICGDLQLTSVQA
glycan array binding signal (z-score) [1]: -0.386 | glycan array binding signal (z-score) [2]: -0.35 | glycan array binding signal (z-score) [3]: -0.404 | glycan array binding signal (z-score) [4]: -0.376 | glycan array binding signal (z-score) [5]: -0.412 | glycan array binding signal (z-score) [6]: -0.41 | glycan array binding signal (z-score) [7]: -0.39 | glycan array binding signal (z-score) [8]: -0.39 | glycan array binding signal (z-score) [9]: -0.399 | glycan array binding signal (z-score) [10]: -0.386 | glycan array binding signal (z-score) [11]: -0.386 | glycan array binding signal (z-score) [12]: -0.367 | glycan array binding signal (z-score) [13]: -0.402 | glycan array binding signal (z-score) (GlcNAc(b1-3)Fuc): -0.373 | glycan array binding signal (z-score) (GlcNAc(b1-3)Gal): -0.41 | glycan array binding signal (z-score) [14]: -0.365 | glycan array binding signal (z-score) (GlcNAc(b1-3)Gal(b1-4)Glc): -0.01 | glycan array binding signal (z-score) [15]: -0.219 | glycan array binding signal (z-score) [16]: 1.73 | glycan array binding signal (z-score) [17]: 3.01 | glycan array binding signal (z-score) [18]: 1.55 | glycan array binding signal (z-score) [19]: 0.059 | glycan array binding signal (z-score) [20]: 1.17 | glycan array binding signal (z-score) [21]: 3.13 | glycan array binding signal (z-score) [22]: 1.24 | glycan array binding signal (z-score) [23]: 2.71 | glycan array binding signal (z-score) [24]: 2.48 | glycan array binding signal (z-score) [25]: 1.84 | glycan array binding signal (z-score) [26]: 2.55 | glycan array binding signal (z-score) [27]: 2.18 | glycan array binding signal (z-score) [28]: 2.39 | glycan array binding signal (z-score) [29]: 0.226 | glycan array binding signal (z-score) [30]: -0.008 | glycan array binding signal (z-score) [31]: 0.363 | glycan array binding signal (z-score) [32]: 0.098 | glycan array binding signal (z-score) [33]: -0.233 | glycan array binding signal (z-score) [34]: 0.084 | glycan array binding signal (z-score) (GlcNAc(b1-3)GalNAc): -0.416 | glycan array binding signal (z-score) (GlcNAc(b1-3)Man): -0.36 | glycan array binding signal (z-score) [35]: -0.41 | glycan array binding signal (z-score) [36]: -0.399 | glycan array binding signal (z-score) [37]: -0.417 | glycan array binding signal (z-score) [38]: -0.388 | glycan array binding signal (z-score) (GlcNAc(b1-4)GlcNAc): -0.379 | glycan array binding signal (z-score) [39]: -0.387
